The target in the experiment is T1, ligand-binding domain of human FGFR1c (D142 to R365) (human, UniProt P11362 142-365).
T1 chain: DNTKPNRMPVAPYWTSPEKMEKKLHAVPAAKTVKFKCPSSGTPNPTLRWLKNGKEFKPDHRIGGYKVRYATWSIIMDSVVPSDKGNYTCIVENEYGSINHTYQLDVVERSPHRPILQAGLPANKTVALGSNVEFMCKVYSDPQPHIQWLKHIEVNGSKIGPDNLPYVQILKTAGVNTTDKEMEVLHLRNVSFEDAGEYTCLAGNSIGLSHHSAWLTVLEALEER
Description: SPR.

B1: human FGF19 ([…]), N-terminally hexahistidine-tagged mature form (ligand)
chain: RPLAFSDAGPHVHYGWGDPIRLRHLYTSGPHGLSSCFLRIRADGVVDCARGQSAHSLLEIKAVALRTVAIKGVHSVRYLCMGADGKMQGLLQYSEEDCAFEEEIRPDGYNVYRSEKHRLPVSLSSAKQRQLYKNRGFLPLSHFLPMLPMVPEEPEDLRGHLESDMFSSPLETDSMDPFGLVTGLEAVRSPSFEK
B1 showed a Kd of 1910 nM. In other words, the single-digit micromolar range.

B2: human FGF2 ([…]) (ligand)
chain: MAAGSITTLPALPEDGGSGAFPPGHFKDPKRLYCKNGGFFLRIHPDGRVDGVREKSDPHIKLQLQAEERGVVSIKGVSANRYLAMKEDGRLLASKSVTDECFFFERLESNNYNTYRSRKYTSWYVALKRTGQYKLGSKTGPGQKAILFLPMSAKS
The molecule B2 gave an equilibrium dissociation constant (Kd) of 58 nM.

In general, Kd refers to the concentration at which binding is half-saturated. Low readings indicate higher affinity, high ones lower affinity.

Source of the values: patent US20130331317A1 (published 2013).
